Experimental findings from the supplement of paper PMC9446081 are described below.

SMILES strings stand for the structures. Out of some 39,000 compounds screened, about 220 (0.56%) showed activity. This is one part of the list.
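Further: static incubation at 37 °C against the wild-type strain, values averaged over two biological replicates.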

This assay concerns Escherichia coli K-12 BW25113. In words: relative growth (OD600 normalised to plate interquartile mean) (fraction); higher = less growth inhibition, active = 0.2 or less. To be noted: 50 µM; LB; incubation time: overnight (16-24 h).
Turning to `CC(C)NC(=O)N[C@H]1CCCCNC1=O`, the relative growth is inactive: 0.991.
With `C[C@@H]1CN([C@H](C)CO)C(=O)Cc2cc(NC(=O)C3CC3)ccc2O[C@@H]1CN(C)Cc1ccc2c(c1)OCO2` the figure was inactive: 0.99; with `CCCC#Cc1cnc2c(c1)C(=O)N([C@@H](C)CO)C[C@H](C)[C@@H](CN(C)C(=O)c1ccc3c(c1)OCO3)O2`, inactive: 1.02.
With `CN(C)CCC=C1c2ccccc2Sc2ccc(Cl)cc21.Cl` the figure was inactive: 0.728; with `CO[C@H]1CN(C)C(=O)c2cc(NS(=O)(=O)CC(F)(F)F)ccc2OC[C@H](C)N(Cc2ccccn2)C[C@H]1C`, inactive: 0.977; with `CC(=O)N[C@@H]1[C@@H](O)[C@H](O)[C@H](CO)O[C@@H]1O`, inactive: 0.978.
With `COc1ccc(-c2cc(C(F)F)nn2-c2ccc(S(N)(=O)=O)cc2)cc1F` the figure was inactive: 0.955; with `CC(C)NC(=O)Nc1ccc2c(c1)CC(=O)N([C@H](C)CO)C[C@@H](C)[C@H](CN(C)C(=O)NC1CCCCC1)O2`, inactive: 1.01; with `NC(=O)c1cn([C@@H]2O[C@H](CO)[C@@H](O)[C@H]2O)c2ncnc(N)c2c1=O`, inactive: 1.03.
In the case of `C[C@H]1CN([C@@H](C)CO)C(=O)c2cc(C#Cc3ccccc3)cnc2O[C@@H]1CN(C)S(=O)(=O)c1ccccc1F`, the relative growth was inactive: 1.04.
On to `Cc1ccc(S(=O)(=O)N(C)C[C@H]2OCCCC[C@H](C)Oc3ccc(NC(=O)Nc4cccc5ccccc45)cc3C(=O)N([C@@H](C)CO)C[C@@H]2C)cc1`, for which the relative growth is inactive: 1.04.
With `C[C@@H]1CN([C@@H](C)CO)C(=O)Cc2cc(NS(=O)(=O)c3ccccc3)ccc2O[C@@H]1CN(C)CC1CC1` the figure was inactive: 0.999.
The result for `C[C@H]1[C@H]([Si](C)(C)F)[C@@H](CCO)O[C@]12C(=O)N(Cc1cccc(N3C(=O)c4ccccc4Oc4ccccc43)c1)c1ccccc12` reads inactive: 1.02; that for `C[C@H](CO)N1C[C@H](C)[C@@H](CN(C)Cc2ccc(C(F)(F)F)cc2)Oc2ccc(NC(=O)CCC(F)(F)F)cc2CC1=O`, inactive: 0.92; that for `CN1CCc2c(n[nH]c2CNc2ncccn2)C1`, inactive: 1.
The result for `COC[C@@H]1CN(C(=O)[C@H]2CCCN2C)N1` reads inactive: 1.01.
In the case of `COc1ccc(S(=O)(=O)N(C)C[C@@H]2Oc3cc(C#CC4CCCC4)ccc3S(=O)(=O)N([C@H](C)CO)C[C@@H]2C)cc1`, the relative growth is inactive: 1.04.
For the compound `C[C@H](CO)N1C[C@H](C)[C@H](CN(C)C(=O)Nc2cccc3ccccc23)Oc2c(NS(=O)(=O)c3ccccc3)cccc2C1=O`, the relative growth was inactive: 0.971.
With `C[C@@H]1CCCCO[C@@H](CN(C)S(=O)(=O)c2ccc(F)cc2)[C@H](C)CN([C@@H](C)CO)C(=O)c2cc(NS(=O)(=O)c3ccc(Cl)cc3)ccc2O1` the figure was inactive: 1.03; with `C[C@H]1CCCCO[C@@H](CN(C)Cc2ccc(C(F)(F)F)cc2)[C@@H](C)CN([C@@H](C)CO)C(=O)c2cc(NS(=O)(=O)c3ccc(Cl)cc3)ccc2O1`, inactive: 1.05; with `Cc1ccc(S(=O)(=O)Nc2ccc3c(c2)C(=O)N([C@H](C)CO)C[C@@H](C)[C@H](CN(C)Cc2ccccc2)OCCCC[C@@H](C)O3)cc1`, inactive: 0.976.
With `Cc1ccc(=O)[nH]n1` the figure was inactive: 1.02.
As for `COc1ccc(C#Cc2ccc([C@H]3[C@H](CO)N4CCCCN(S(=O)(=O)c5cn(C)cn5)C[C@@H]34)cc2)cc1`, the relative growth was inactive: 0.936.
With `COc1ccc(S(=O)(=O)N(C)C[C@@H]2Oc3ccc(NC(=O)Nc4cccc5ccccc45)cc3C(=O)N([C@H](C)CO)C[C@@H]2C)cc1` the figure was inactive: 1.03; with `C[C@@H]1CN([C@@H](C)CO)C(=O)c2cccc(NC(=O)Nc3ccc4c(c3)OCO4)c2O[C@@H]1CN(C)Cc1ccc(C(F)(F)F)cc1`, inactive: 1.04.
The result for `C=CCOC(=O)[C@H]1[C@@H]2C(=O)O[C@@H](c3ccccc3)[C@@H](c3ccccc3)N2[C@@H](c2ccc(OCCOC(=O)[C@H]3C[C@H]4C(=O)N[C@@H](CCCC[N+](C)(C)C)C(=O)N4[C@H]3c3cccc(OCCO)c3)cc2)[C@]12C(=O)Nc1ccc(I)cc12` reads inactive: 1.04.
Turning to `C[C@H](CO)N1C[C@H](C)[C@H](CN(C)C(=O)Cc2ccccn2)Oc2ncc(C#CC3CCCC3)cc2C1=O`, the relative growth was inactive: 0.981.
On to `C[C@@H]1CN([C@@H](C)CO)C(=O)c2cc(NC(=O)CCCCCC(=O)Nc3ccccc3N)ccc2O[C@H]1CN(C)S(C)(=O)=O`, for which the relative growth is inactive: 1.01.
The result for `CN1CCN(C(=O)C[C@H]2CC[C@H]3[C@@H](COC[C@@H](O)CN3C(=O)C3CCOCC3)O2)CC1` reads inactive: 0.991.
With `Cc1ccc(S(=O)(=O)N(C)C[C@@H]2OCCCC[C@@H](C)Oc3ccc(NC(=O)Nc4ccc(F)cc4)cc3C(=O)N([C@@H](C)CO)C[C@H]2C)cc1` the figure was inactive: 1.03.
With `COc1ccc(CN(C)C[C@H]2Oc3c(NS(=O)(=O)c4cn(C)cn4)cccc3C(=O)N([C@@H](C)CO)C[C@H]2C)cc1` the figure was inactive: 1; with `COc1ccc(NC(=O)N(C)C[C@H]2Oc3ccc(NC(=O)Nc4cccc5ccccc45)cc3C(=O)N([C@@H](C)CO)C[C@@H]2C)cc1`, inactive: 1.03; with `CCOC(=O)Nc1c[n+](N2CCOCC2)no1`, inactive: 0.964.
As to `C[C@H]1CN([C@@H](C)CO)C(=O)c2cccc(NC(=O)NC3CCCCC3)c2O[C@H]1CN(C)Cc1ccc(Oc2ccccc2)cc1`, the relative growth was inactive: 0.979.
With `Cc1noc(C)c1NC(=O)N(C)C[C@@H]1OCCCC[C@@H](C)Oc2ccc(NS(=O)(=O)c3cccs3)cc2C(=O)N([C@H](C)CO)C[C@H]1C` the figure was inactive: 1; with `C[C@H]1CN([C@@H](C)CO)C(=O)c2cc(NC(=O)NC3CCCCC3)ccc2O[C@H]1CN(C)Cc1ccc(Cl)c(Cl)c1`, inactive: 1.
The result for `C[C@@H]1CN([C@@H](C)CO)C(=O)c2cc(NC(=O)CCCN(C)C)ccc2O[C@H]1CN(C)S(=O)(=O)c1ccc(F)cc1` reads inactive: 1.01; that for `C[C@H](CO)N1C[C@H](C)[C@H](CN(C)S(=O)(=O)c2ccccc2)Oc2ncc(C#CC3(O)CCCC3)cc2C1=O`, inactive: 1.04; that for `Cc1ccc(S(=O)(=O)Nc2ccc3c(c2)CC(=O)N([C@@H](C)CO)C[C@@H](C)[C@H](CN(C)Cc2ccc(-c4ccccc4)cc2)O3)cc1`, inactive: 1.01.
On to `COc1ccc(NC(=O)N(C)C[C@@H]2Oc3c(NC(=O)c4cnccn4)cccc3C(=O)N([C@@H](C)CO)C[C@@H]2C)cc1`, for which the relative growth is inactive: 1.03.
As for `COc1ccc(C(=O)NCc2ccc(OCCN(C)C)cc2)cc1OC`, the relative growth was inactive: 1.12.
With `C[C@@H]1CN([C@H](C)CO)C(=O)c2cc(NS(=O)(=O)c3cn(C)cn3)ccc2O[C@@H](C)CCCCO[C@@H]1CN(C)S(=O)(=O)c1ccccc1` the figure was inactive: 1.04; with `COc1ccccc1O[C@@H](C)C(=O)NN`, inactive: 1.01.
For `CC(C)NC(=O)N(C)C[C@H]1Oc2ccc(NC(=O)C3CCCCC3)cc2CC(=O)N([C@@H](C)CO)C[C@H]1C`, the relative growth is inactive: 0.991.
With `CN(C)C(=O)C[C@H]1C=C[C@H](NC(=O)C2CC2)[C@@H](CO)O1` the figure was inactive: 0.971.
With `COC(=O)[C@@H]1N2C(=O)[C@@H](N3C[C@](C)(OC)O[C@@H](Cc4ccccc4)[C@H]3/C=C/C3CC3)[C@H]2SC1(C)C`, the relative growth is inactive: 1.04.
The result for `C[C@H]1CN([C@@H](C)CO)C(=O)c2cc(NC(=O)Nc3ccc(C(F)(F)F)cc3)ccc2O[C@H]1CN(C)S(=O)(=O)c1ccc(Cl)cc1` reads inactive: 1.04; that for `O=C(NO)c1ccc(C(=O)N/N=C/[C@@H](O)[C@@H](O)[C@H](O)[C@H](O)CO)cc1`, inactive: 1.
Take `C[C@@H]1CN([C@H](C)CO)C(=O)Cc2cc(NC(=O)Nc3ccc(F)cc3)ccc2O[C@H]1CN(C)S(C)(=O)=O`: the relative growth is inactive: 1.
The result for `O=C(CCCCCC(=O)N/N=C/[C@@H](O)[C@H](O)[C@H](O)CO)NO` reads inactive: 0.999; that for `C[C@@H]1CCCCO[C@H](CN(C)C(=O)Nc2ccc(F)cc2)[C@H](C)CN([C@@H](C)CO)C(=O)c2cc(NC(=O)Nc3ccc4c(c3)OCO4)ccc2O1`, inactive: 1.03.
For `CC(C)N1C[C@@H](C)[C@H](CN(C)Cc2ccc(Oc3ccccc3)cc2)Oc2c(C(=O)Nc3ccncc3)cccc2C1=O`, the relative growth was inactive: 1.02.
With `C[C@@H]1CN([C@@H](C)CO)C(=O)c2cc(NC(=O)Cc3ccccc3)ccc2O[C@@H](C)CCCCO[C@@H]1CN(C)Cc1ccccc1` the figure was inactive: 0.946.
The result for `C[C@H]1CN([C@@H](C)CO)C(=O)c2cc(-c3ccc(C(=O)N(C)C)cc3)cnc2O[C@H]1CN(C)C(=O)c1ccncc1` reads inactive: 0.964; that for `C[C@H](CO)N1C[C@H](C)[C@H](CN(C)C(=O)CCC(F)(F)F)OCCCC[C@H](C)Oc2ccc(NS(=O)(=O)c3ccccc3)cc2C1=O`, inactive: 0.988; that for `C[C@@H]1CN([C@H](C)CO)C(=O)Cc2cc(NC(=O)CCN3CCOCC3)ccc2O[C@@H]1CN(C)S(C)(=O)=O`, inactive: 1.03.
The result for `COc1ccc(COC[C@]23N=C4Sc5ccc([N+](=O)[O-])cc5C(=O)N4[C@H](c4ccccc4O2)[C@H]3COC(=O)c2ccccc2)cc1` reads inactive: 1.01; that for `C[C@@H]1CN([C@H](C)CO)C(=O)c2cccc(NC(=O)c3nc4ccccc4s3)c2O[C@H]1CN(C)C(=O)Nc1ccc(C(F)(F)F)cc1`, inactive: 0.923; that for `C[C@H]1CN([C@@H](C)CO)C(=O)c2cccc(NC(=O)Nc3ccc(F)cc3)c2O[C@@H]1CN(C)Cc1ccc(C(=O)Nc2ccccc2N)cc1`, inactive: 1.01.
Regarding `CO[C@H]1CN(C)C(=O)c2ccc(NS(=O)(=O)c3cn(C)cn3)cc2OC[C@H](C)N(CC2CC2)C[C@@H]1C`, the relative growth is inactive: 0.997.
